From PubChem BioAssay AID1460 (National Center for Advancing Translational Sciences (NCATS), 2008)
In all, about 270,000 compounds went through this assay and about 5,800 (2.1%) were called active. Inconclusive results, whose numbers are uncertain, are shown with a selection of clear calls. Calls come from the whole dose curve; as a rule, active = well fitted inhibition curve with a large enough effect; inconclusive = small, poorly fitted or top-dose-only effect; inactive = flat fitted curve, though single readings scatter. A potency beside an inconclusive call is a rough fit, not a confirmed value.

These compounds were tested against Microtubule-associated protein tau (Homo sapiens) (UniProt P10636) (assay: qHTS for Inhibitors of Tau Fibril Formation, Thioflavin T Binding). Details: recombinant tau K18 P301L (four-repeat tau fragment), heparin-induced fibrillization, ThT fluorescence; series mostly up to 57.4 µM; activity, negative = inhibition: at the top concentration.
Sequence of UniProt P10636 (P10636 whole entry, looked up, the tested form may be a part): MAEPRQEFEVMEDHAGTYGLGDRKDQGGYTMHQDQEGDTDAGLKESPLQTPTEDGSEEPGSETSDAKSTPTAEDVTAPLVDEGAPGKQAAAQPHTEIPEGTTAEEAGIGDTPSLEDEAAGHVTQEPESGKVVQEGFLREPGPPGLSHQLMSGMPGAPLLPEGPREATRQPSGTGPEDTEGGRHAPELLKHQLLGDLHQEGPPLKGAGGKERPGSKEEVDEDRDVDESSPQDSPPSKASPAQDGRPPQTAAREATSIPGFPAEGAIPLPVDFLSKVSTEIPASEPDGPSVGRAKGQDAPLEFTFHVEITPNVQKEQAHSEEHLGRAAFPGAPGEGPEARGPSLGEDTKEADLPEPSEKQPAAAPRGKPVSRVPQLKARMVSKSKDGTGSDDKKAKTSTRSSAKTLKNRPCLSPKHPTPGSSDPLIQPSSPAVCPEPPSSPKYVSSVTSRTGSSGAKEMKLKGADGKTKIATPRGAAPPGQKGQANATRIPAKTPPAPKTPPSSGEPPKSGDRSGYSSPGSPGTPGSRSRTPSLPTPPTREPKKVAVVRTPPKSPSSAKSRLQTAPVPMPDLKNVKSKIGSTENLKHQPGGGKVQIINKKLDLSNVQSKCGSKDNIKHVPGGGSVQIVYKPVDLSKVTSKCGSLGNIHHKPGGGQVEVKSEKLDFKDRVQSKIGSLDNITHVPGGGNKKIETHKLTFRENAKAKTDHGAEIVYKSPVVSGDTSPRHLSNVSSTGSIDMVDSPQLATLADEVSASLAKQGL
Procedure, shortened: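 Heparin-induced fibrillization of the P301L-mutant K18 repeat-domain fragment of human tau was followed by ThT binding in quantitative high-throughput format.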
% is set by controls: 0 for no effect and ±100 for the full control effect; potency is the fitted concentration of half-maximal effect; tags give direction and shape of the fitted curve.
Note: nearly all actives have a fitted effect of over 55% in size.

Compound	Potency	activity, negative = inhibition
COc1cccc(NC(=O)CSc2c3c(nc4ccccc24)CCCC3)c1	inconclusive: 4.47 µM [inhibitor, full curve]	–
COC(=O)C1=C(C)N(c2ccc(OC)cc2)C(=O)/C1=C\c1cccs1	inconclusive: 5.01 µM [inhibitor, partial curve]	–
Cc1cccc(NC(=O)CN2C(=O)CSc3ccc(S(=O)(=O)N4CCCC4)cc32)c1C	–	inactive: -4.38%
Cc1[nH]nc(Nc2ccccc2)c1[N+](=O)[O-]	inconclusive: 25.1 µM [inhibitor, single point]	–
CCOC(=O)SC1=N/C(=C\c2ccc(N(C)C)cc2)C(=O)S1	active: 4.47 µM	–
Cc1ccc(S/C=C\C(=O)c2ccccc2)cc1	inconclusive: 15.8 µM [inhibitor, partial curve]	–
CCCOc1ccc(C(=O)NC(=S)Nc2nc3ccc(C)cc3s2)cc1	inconclusive: 5.62 µM [inhibitor, partial curve, poor fit]	–
Cc1ccc(C2CCN(C(=O)c3cnn(-c4ccc(C)c(C)c4)c3C3CCN(C(=O)OC(C)(C)C)CC3)C2)cc1 (stereo not drawn)	–	inactive: -9.29%
Cc1[nH]c2ccccc2c1NC(=O)CN1CCN(c2cccc(C(F)(F)F)c2)CC1	inconclusive: 28.2 µM [inhibitor, single point]	–
COc1cccc(OCC(O)CN2CC(C)CC(C)C2)c1 (stereo not drawn)	–	inactive: 5.58%
COc1ccc(C)cc1N1C(=N)/C(=C2/Nc3ccccc3S2)C(c2ccccc2)C1=O (stereo not drawn)	inconclusive: 14.1 µM [inhibitor, partial curve]	–
O=C(c1ccc(C#CC2(O)CCCCC2)cc1)N1CCOCC1	–	inactive: 1.83%
CCOc1ccccc1/C=N/Nc1nc2c(N)ncnc2n1[C@H]1O[C@@H](CO)[C@H](O)[C@@H]1O	inconclusive: 22.4 µM [inhibitor, partial curve, poor fit]	–
COc1cc(/C=C/C(=O)NCCn2c(C)cc3ccccc32)cc(OC)c1OC	inconclusive: 20 µM [inhibitor, partial curve]	–
CSc1nc(SCCO)c2sc3nc(-c4ccco4)c4c(c3c2n1)CC(C)(C)OC4	inconclusive: 28.2 µM [inhibitor, single point]	–
COC(=O)c1ccc(CSc2nc3sc(C(=O)O)c(C)c3c(=O)[nH]2)cc1	inconclusive: 17.8 µM [inhibitor, single point]	–
CC1CCN(S(=O)(=O)c2ccc3c(c2)CCN3C(=O)Nc2ccc(Br)cc2F)CC1	–	inactive: 6.66%
O=C1OC(OC(=O)c2ccccc2Br)C(N2CCOCC2)=C1Cl (stereo not drawn)	inconclusive: 15.8 µM [inhibitor, partial curve]	–
